Among all 310,000 compounds or so, about 18,000 (5.8%) were called active. This list was built around the results that the source calls inconclusive (neither active nor inactive); the mix of calls is not that of the screen. Calls follow the shape of the dose curve; as a rule, active = well fitted inhibition curve with a large enough effect; inconclusive = small, poorly fitted or top-dose-only effect, or another doubt; inactive = no such curve, though single readings can be large or run the other way. Potencies of inconclusive entries are left out as doubtful fits.
Assay: Primary qHTS for delayed death inhibitors of the malarial parasite plastid, 48 hour incubation
Conditions: P. falciparum luciferase growth in erythrocytes; series mostly up to 28.7 µM
Summary of the method: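 Growth was read as firefly luciferase luminescence after a 48 h, 37 C, 5% CO2 exposure of compounds to reporter-bearing P. falciparum cultures (0.1% parasitemia, 2% hematocrit final) in Albumax-supplemented RPMI 1640.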
With O=C(Nc1ccc(-n2cccn2)cc1)C1CCCCN1Cc1cccc2c1OCO2 (stereo not drawn) the Potency was inconclusive [inhibitor, partial curve, poor fit]. For COC(=O)c1ccccc1NC(=O)CSc1nnc(-c2ccncc2)o1, the Potency was “inactive”. For Cc1ccc(S(=O)(=O)N2CCCCC2CCNC(=O)C(=O)NCc2ccccc2)cc1 (stereo not drawn), the Potency was inconclusive [inhibitor, single point]. For Cc1cc(Cl)ccc1OCCCC(=O)NO, the Potency was inconclusive [inhibitor, single point]. With COc1ccc(Nc2nc(N3CCCC3)c3ccccc3n2)cc1 the Potency was active: 3.29 µM. For CCOC(=O)c1c(C)[nH]c(C)c1S(=O)(=O)Nc1ccc(CN2CCCCC2)cc1, the Potency was inconclusive [inhibitor, single point]. In the case of Cc1[nH]c2ccccc2c1/C=N/n1cnnc1, the Potency is reported as “inactive”. For CCN1CCCC1CNC(=O)c1ccc2c(c1)N(Cc1cccc(Cl)c1)C(=O)c1ccccc1S2(=O)=O (stereo not drawn), the Potency was inconclusive [inhibitor, full curve]. For COc1ccc2cc3cc(C(=O)NCc4cccs4)oc3nc2c1, the Potency was active: 5.86 µM. With Cc1nonc1NC(=O)c1oc2ccccc2c1C the Potency was active: 9.28 µM. For Cc1ccc(CN(C(=O)c2ccco2)C(C(=O)NC2CCCC2)c2ccc(N3CCOCC3)cc2)cc1 (stereo not drawn), the Potency was active: 10.4 µM. In the case of C=CCNc1ncnc2c1[nH]c1ccccc12, the Potency is reported as active: 13.1 µM. For Cc1ccccc1-n1c(C)nc2ccccc2c1=O, the Potency was “inactive”. In the case of Cc1ccccc1OCCCC(=O)Nc1ccccc1C(F)(F)F, the Potency is reported as inconclusive [inhibitor, partial curve, poor fit]. With O=S(=O)(c1ccccc1)c1nc(-c2ccccc2F)oc1NCc1cccnc1 the Potency was inconclusive [inhibitor, single point]. With O=S(=O)(c1cccc(S(=O)(=O)N2CCC(Cc3ccccc3)CC2)c1)N1CCOCC1 the Potency was “inactive”. In the case of O=C1C2C(c3ccccc3)CC=CC2[C@H](c2ccoc2)N1Cc1ccccc1 (stereo partly drawn), the Potency is reported as inconclusive [inhibitor, single point]. With Cc1nc2ccc(NC(=O)c3cc([N+](=O)[O-])cc([N+](=O)[O-])c3Cl)cc2s1 the Potency was inconclusive [inhibitor, single point]. For CCOc1ccc2[nH]c3ncccc3c(=O)c2c1, the Potency was inconclusive [inhibitor, partial curve]. With Cc1nnc(SCC2CCCO2)n1-c1ccccc1 (stereo not drawn) the Potency was inconclusive [inhibitor, single point]. With COc1ccc(COc2cc(-c3cccc(OC)c3)nc3ccc(N)cc23)cc1 the Potency was active: 14.7 µM. For Nc1nc(-c2ccccc2)nn1S(=O)(=O)c1ccccc1, the Potency was “inactive”. For CCOc1ccc(S(=O)(=O)N2CCCC(C(=O)NCc3ccccn3)C2)cc1C (stereo not drawn), the Potency was “inactive”. For Cc1cc(NCC2CCCCC2)nc2ccccc12, the Potency was active: 3.29 µM. For COC(=O)CC1SCCNC1=O (stereo not drawn), the Potency was “inactive”. In the case of CCCc1nc(SCC(=O)Nc2ccccc2OC)c2c(=O)n(C)c(=O)n(C)c2n1, the Potency is reported as inconclusive [inhibitor, single point]. In the case of COc1cccc(C(=O)CSc2nccn2C)c1, the Potency is reported as “inactive”. In the case of CC1=CC(C)(C)n2c(O)c(N=NC(N)=S)c3c(C)ccc1c32, the Potency is reported as “inactive”. For N#CC1=C(N)Oc2c(c(=O)oc3ccccc23)C1c1ccc(OC(=O)N2CCOCC2)cc1 (stereo not drawn), the Potency was active: 9.28 µM. In the case of COc1ccccc1NS(=O)(=O)c1ccc2c(c1)N(C(C)=O)CC(C)S2 (stereo not drawn), the Potency is reported as “inactive”. In the case of CN(C)S(=O)(=O)c1cccc(NC(=O)c2cccc(S(=O)(=O)N3CCc4ccccc43)c2)c1, the Potency is reported as active: 5.86 µM. With CCOc1ccc(NC(=O)CSc2ccc3nnc(-c4ccccn4)n3n2)cc1 the Potency was inconclusive [inhibitor, partial curve]. For Cc1ccc(NC(=O)C(CC(C)C)NC(=O)C2CCC(C)CC2)nc1 (stereo not drawn), the Potency was inconclusive [inhibitor, single point]. In the case of COc1ccc(-c2cc3c(=O)n(CC(=O)NCCCN4CCC(N5CCCCC5)CC4)nc(C)n3n2)cc1, the Potency is reported as inconclusive [inhibitor, full curve]. In the case of CCC(=O)NC(=S)Nc1ccc(NC(=O)c2cccnc2)cc1, the Potency is reported as “inactive”. In the case of COc1cccc(N2CCN(C(=O)/C=C/c3ccco3)CC2)c1, the Potency is reported as inconclusive [inhibitor, single point]. For Cc1cccc(-c2nc3ccc(C(=O)N4CCC5(CC4)OCCO5)cc3nc2-c2cccc(C)c2)c1, the Potency was active: 10.4 µM. For O=C(COC(=O)c1ccc(S(=O)(=O)N2CCCCC2)cc1)NCc1ccc(F)cc1, the Potency was inconclusive [inhibitor, single point]. With CS(=O)(=O)Oc1ccc2c(c1)O/C(=C\c1cccc([N+](=O)[O-])c1)C2=O the Potency was inconclusive [inhibitor, single point]. For Cc1cccc(COCC(CC(C)C)N2CCN(C(=O)c3ccc(C(F)(F)F)cc3)CCC2=O)c1 (stereo not drawn), the Potency was active: 10.4 µM. In the case of CN(Cc1ccccc1)C(=O)c1nn2cccnc2c1Cl, the activity change, negative = inhibition is reported as inactive: 12.8% [at 5.75 µM]. In the case of Cc1nn(CC(=O)NCCCN2CCC(Cc3ccccc3)CC2)c(=O)c2cc(-c3ccccc3)nn12, the Potency is reported as inconclusive [inhibitor, partial curve, poor fit]. With COc1ccc(-c2cc(C)no2)cc1S(=O)(=O)NCC1CCN(Cc2cc(C)ccc2C)CC1 the Potency was inconclusive [inhibitor, single point]. With Cc1csc(NC(=O)CCC(=O)N(CC(=O)NC2CCCC2)Cc2ccco2)n1 the Potency was inconclusive [inhibitor, single point]. With CN(C)CCCN1C(=O)c2oc3ccc(F)cc3c(=O)c2C1c1cccnc1 (stereo not drawn) the Potency was inconclusive [inhibitor, single point]. For FC(F)(F)c1cccc(Cc2noc(CN3CCC(N4CCCCC4)CC3)n2)c1, the Potency was inconclusive [inhibitor, single point]. With CC(C)OC(=O)c1cc(NC(=O)C2C3CCC(O3)C2C(=O)O)cc(C(=O)OC(C)C)c1 (stereo not drawn) the Potency was inconclusive [inhibitor, single point]. In the case of COc1ccc(CNC(=O)Nc2ccc3c(c2)N(C)C(=O)CS3)cc1, the Potency is reported as “inactive”. For C#CCNC(=O)C1=C[C@@H](c2ccc(C(F)(F)F)cc2)[C@H](CCCO)[C@@H](OCC)O1, the Potency was inconclusive [inhibitor, partial curve, poor fit]. In the case of CC(=O)c1ccc(Oc2nc(-c3cccnc3)nc3ccccc23)cc1, the Potency is reported as inconclusive [inhibitor, partial curve, poor fit]. In the case of CC1CCCN(CC(=O)Nc2cc(Cl)ccc2Oc2ccccc2)C1 (stereo not drawn), the Potency is reported as active: 14.7 µM. In the case of CCc1n[nH]c2c1/C(=N\O)CC(c1ccccc1)C2 (stereo not drawn), the Potency is reported as inconclusive [inhibitor, single point]. In the case of CC1(c2ccc3ccccc3c2)NC(=O)N(CC(=O)N2CCN(Cc3ccccc3)CC2)C1=O (stereo not drawn), the Potency is reported as inconclusive [inhibitor, single point]. With COc1ccc(N2CCN(C(=O)C(C)(C)Oc3ccc(Cl)cc3)CC2)cc1 the Potency was inconclusive [inhibitor, single point]. With Cc1cc(C)c(S(=O)(=O)N2CCN(C(=O)c3cc4ccccc4oc3=O)CC2)c(C)c1 the Potency was inconclusive [inhibitor, single point]. For CCS(=O)(=O)c1ccc2oc(SCC(=O)NCCC3=CCCCC3)nc2c1, the Potency was inconclusive [inhibitor, partial curve, poor fit]. In the case of O=C(CSc1nnnn1-c1ccc(O)cc1)c1cc2ccccc2o1, the Potency is reported as inconclusive [inhibitor, single point]. With CC(Nc1nc(-c2ccccc2O)nc2ccccc12)c1ccccc1 (stereo not drawn) the Potency was inconclusive [inhibitor, single point]. For Cc1ccc(Cn2c(C)c3cnn(CC(=O)N4CCC5(CC4)OCCO5)c(=O)c3c2C)cc1, the Potency was inconclusive [inhibitor, single point]. For CC(Sc1nc2ccccc2c(=O)n1CCc1ccc(S(N)(=O)=O)cc1)C(=O)NC(N)=O (stereo not drawn), the Potency was inconclusive [inhibitor, single point]. With Cc1ccc(S(=O)(=O)N(C)C)cc1NC(=O)c1cncc(Br)c1 the Potency was active: 13.1 µM. For CCc1ccc(C(C)NC(=O)/C(C#N)=C\c2cn[nH]c2-c2ccccc2)cc1 (stereo not drawn), the Potency was inconclusive [inhibitor, single point]. With c1ccc(-n2cc(CN3CCC(N4CCOCC4)CC3)c(-c3ccc4c(c3)OCO4)n2)cc1 the Potency was inconclusive [inhibitor, partial curve, poor fit]. In the case of COc1cc(OC)c(NC(=O)Cc2ccc(OC)c(S(=O)(=O)N3CCOCC3)c2)cc1Cl, the Potency is reported as inconclusive [inhibitor, partial curve, poor fit]. With CC(=O)N1CCN(c2ccccc2NC(=O)Cc2ccc(Cl)cc2)CC1 the Potency was inconclusive [inhibitor, partial curve]. With COc1ccc(C(=O)NC(C(=O)NCC2(N3CCCCC3)CCCCC2)C(C)C)cc1 (stereo not drawn) the Potency was inconclusive [inhibitor, single point]. For Cc1cccc(C)c1N1CCN(S(=O)(=O)N2CCCCC2)CC1, the Potency was inconclusive [inhibitor, single point]. For CCN(c1cccc(C)c1)C1C(=O)c2ccccc2N1C(C)=O (stereo not drawn), the Potency was inconclusive [inhibitor, single point].
% is scaled to controls: 0 for no effect and ±100 for the full control effect; potency is read from the fitted curve at half-maximal effect; tags tell the direction and shape of the fitted curve.
